PubChem BioAssay AID1030 (National Center for Advancing Translational Sciences (NCATS), 2008)
The whole screen tested about 220,000 compounds, of which about 16,000 (7.3%) were called active. Inconclusive results, whose numbers are uncertain, are shown with a selection of clear calls. The call rests on the fitted dose curve; in most records, active means well fitted inhibition curve with a large enough effect (not every such curve was filed as active); inconclusive means small, poorly fitted or top-dose-only effect, or another doubt; inactive means no such curve, though single readings can be large or run the other way. Potencies of inconclusive entries are left out as doubtful fits.

What follows are compounds tested against Aldehyde dehydrogenase 1A1 (Homo sapiens) (UniProt P00352) (assay: qHTS Assay for Inhibitors of Aldehyde Dehydrogenase 1 (ALDH1A1)). Conditions: Purified ALDH1A1, NADH fluorescence, propionaldehyde substrate; series mostly up to 75.3 µM.
UniProt P00352, sequence (P00352 whole entry, looked up): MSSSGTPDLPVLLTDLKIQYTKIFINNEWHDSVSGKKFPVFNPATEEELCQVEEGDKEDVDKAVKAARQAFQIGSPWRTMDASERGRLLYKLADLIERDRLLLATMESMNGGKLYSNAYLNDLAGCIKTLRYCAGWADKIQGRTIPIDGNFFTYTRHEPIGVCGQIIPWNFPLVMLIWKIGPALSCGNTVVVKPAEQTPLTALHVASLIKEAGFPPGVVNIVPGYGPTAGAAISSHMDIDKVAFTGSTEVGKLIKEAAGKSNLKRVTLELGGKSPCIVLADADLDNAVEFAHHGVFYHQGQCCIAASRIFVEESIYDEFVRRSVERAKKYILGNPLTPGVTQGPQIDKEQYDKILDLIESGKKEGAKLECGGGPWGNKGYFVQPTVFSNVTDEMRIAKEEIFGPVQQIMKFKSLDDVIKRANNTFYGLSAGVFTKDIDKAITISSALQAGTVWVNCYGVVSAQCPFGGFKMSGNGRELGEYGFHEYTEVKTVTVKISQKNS
Potency means the concentration at half of the fitted maximal effect; tags describe the fitted curve by direction and shape.

| SMILES | Potency |
| --- | --- |
| CC1(C)CC(=O)c2cc(O)ccc2O1 | inactive |
| COc1ccccc1CNC(=O)CCS(=O)(=O)c1cccs1 | inconclusive [inhibitor, single point] |
| COC(=O)c1c(NC(=O)c2ccccc2)sc(Cc2ccccc2)c1C | inconclusive [inhibitor, partial curve] |
| COc1ccc(-c2noc(CCC(=O)NCCCN3CCC(Cc4ccccc4)CC3)n2)cc1 | inconclusive [inhibitor, single point] |
| c1cc(-c2nnc3sc(C4CCCCC4)nn23)ccn1 | inactive |
| CCOC(=O)N1CCC(N2Cc3cccc(C(=O)Nc4ccc(F)cc4)c3C2=O)CC1 | inactive |
| CCCCS(=O)(=O)/C=C/[C@H]1[C@H](S(=O)(=O)CCCC)[C@H]2C=C[C@@H]1C2 | inconclusive [inhibitor, partial curve] |
| COc1ccc(NC(=O)CN(C)Cc2c(F)cccc2Cl)cc1S(=O)(=O)N1CCCCC1 | active: 28.2 µM |
| Cc1nnc(SCC(=O)c2ccc(C(C)C)cc2)s1 | inactive |
| O=C(c1cc2cc(Br)ccc2oc1=O)N1CCN(c2ccccn2)CC1 | inactive |
| O=C(c1cccc2ccccc12)N1CCN(CC2CC=CCC2)CC1 (stereo unspecified) | inconclusive [inhibitor, single point] |
| Cc1ccc(NC(=O)Cc2ccccc2Cl)cc1S(=O)(=O)N(C)C | inconclusive [inhibitor, single point] |
| CCC/S(C)=N/S(=O)(=O)c1ccc(C)cc1 (stereo unspecified) | inconclusive [inhibitor, single point] |
| Cc1c(C(=O)N2CC(C)OC(C)C2)sc2nc(-c3ccc(F)cc3)cn12 (stereo unspecified) | inactive |
| CCOC(=O)c1c(NC(=O)c2ccn(CC)n2)sc2c1CCCC2 | inconclusive [inhibitor, partial curve] |
| COc1ccc(-c2nc3cnc(N(C)C)nc3n(Cc3ccc(F)cc3)c2=O)cc1 | inconclusive [inhibitor, single point] |
| CN(C)CCNc1oc(-c2cccc(Cl)c2)nc1C#N | inconclusive [inhibitor, single point] |
| Cc1ccc(OCc2nnc(SCC(=O)c3ccccc3)n2Cc2ccco2)cc1 | inconclusive [inhibitor, single point] |
| CC(=O)Nc1ccc(S(=O)(=O)NCC(=O)OCC(=O)NC23CC4CC(CC(C4)C2)C3)cc1 | inactive |
| CN1CCN(c2ccc([N+](=O)[O-])cc2C(=O)Nc2ccccc2)CC1 | inconclusive [inhibitor, single point] |
| Cc1cc2n(n1)C(c1c[nH]c3ccccc13)Nc1ccccc1-2 (stereo unspecified) | inconclusive [inhibitor, partial curve] |
| O=C(N/N=C/c1ccc(O)c2ncccc12)c1cccc(Br)c1 | inactive |
| CN(NC(=O)Nc1ccccc1)c1cnn(C)c(=O)c1Cl | inactive |
| O=C1c2ccccc2C(Nc2ccc(S(=O)(=O)N3CCCCC3)cc2)N1Cc1ccco1 (stereo unspecified) | inconclusive [inhibitor, single point] |
| CCc1cccc2c(-c3csc(=NC)n3C)c[nH]c12 | inconclusive [inhibitor, single point] |
| CCOC(=O)N1CCc2c(sc(NC(=O)CN3CCOCC3)c2C(=O)Nc2ccccc2)C1 | inconclusive [inhibitor, single point] |

| SMILES | Potency |
| --- | --- |
| Cc1ccnc(NC(=O)CCC(=O)N(CC(=O)NCCc2ccccc2)Cc2ccco2)c1 | active: 7.94 µM |
| COc1cccc(CNC(=O)CCC2CCCN(C(=O)c3csc(C(C)C)n3)C2)c1 (stereo unspecified) | inactive |
| COC(=O)c1cc(NC(C)=O)ccc1N1CCOCC1 | inactive |
| O=C(C1CCN(C2CC(=O)N(c3cccc(Cl)c3)C2=O)CC1)N1CCCC1 (stereo unspecified) | active: 3.16 µM |
| CC1CCN(S(=O)(=O)c2cccc(S(=O)(=O)N3CCOCC3)c2)CC1 | inconclusive [inhibitor, single point] |
| O=C(NCc1cccnc1)C(=O)NCC(c1ccco1)N1CCN(c2ccccc2F)CC1 (stereo unspecified) | active: 11.2 µM |
| COc1cccc(N2CCN(C3CC(=O)N(c4cccc(Cl)c4)C3=O)CC2)c1 (stereo unspecified) | inconclusive [inhibitor, single point] |
| COC(=O)c1sc(NC(=S)NC(=O)c2ccc(F)cc2)nc1C | inconclusive [inhibitor, single point] |
| COc1ccccc1C(=O)C1CCCN(C(=O)c2cccnc2SC)C1 (stereo unspecified) | inconclusive [inhibitor, single point] |
| CCCCCCc1ccc(-c2ncc(N)cn2)cc1 | inconclusive [inhibitor, single point] |
| CC(C)(C)c1ccc(/C=C/C(=O)N2CCOCC2)cc1 | inconclusive [inhibitor, partial curve, poor fit] |
| COc1ccc(C2C=C(C)Nc3nc(SC)nn32)cc1 (stereo unspecified) | inconclusive [inhibitor, partial curve] |
| C#CC1(O)CC(C)NCC1(C)CCC#N (stereo unspecified) | inactive |
| COc1cc2c(cc1OC)C(C1C(=O)CC(C)CC1=O)N(C(=O)CCl)CC2 (stereo unspecified) | inconclusive [inhibitor, partial curve] |
| Nc1ccc2nc(SCC(=O)N3CCOCC3)sc2c1 | inactive |
| CNC(=O)C12N=CNN=C1N(C)C(=O)N2C (stereo unspecified) | inactive |
| CC(C)Oc1ccccc1C1CC(=O)Nc2cc3c(cc21)OCO3 (stereo unspecified) | inactive |
| O=C(COC(=O)c1cnccn1)Nc1cccc2ccccc12 | inactive |
| COC(=O)c1ccc(NC(=S)NC2CC3CCC2C3)cc1 (stereo unspecified) | inconclusive [inhibitor, partial curve] |
| Cc1occc1C(=O)Nc1nnc(C2CCCCC2)s1 | inconclusive [inhibitor, single point] |
| CC(=O)c1ccccc1NC(=O)COC(=O)CCCN1C(=O)c2cccc3cccc(c23)C1=O | inconclusive [inhibitor, single point] |
| COC(=O)C1C(=O)C=C(Nc2ccc(F)cc2F)CC1c1ccc(OC)cc1 (stereo unspecified) | inconclusive [inhibitor, partial curve] |
| COc1ccccc1C(=O)C1CCCN(C(=O)CSc2ccccn2)C1 (stereo unspecified) | inconclusive [inhibitor, single point] |
| Cc1ccc2[nH]c(=O)c(COC(=O)C3CCCO3)cc2c1 (stereo unspecified) | inconclusive [inhibitor, partial curve] |
| Fc1ccccc1NC(=S)N1CCN(c2ccccn2)CC1 | inactive |
| COc1ccc(/C=C/C2=C[C@]3(C)C[C@]2(C)[C@H](c2ccc(OC)cc2)CC3=O)cc1 | inactive |

| SMILES | Potency |
| --- | --- |
| CCOC(=O)C(C)(C)Oc1ccc(Cl)cc1 | inactive |
| COc1ccc(Cl)cc1C(=O)Nc1ccc(NC(=O)c2ccco2)cc1 | inconclusive [inhibitor, partial curve] |
| CCOc1ccc(Br)cc1/C=N/O | inactive |
| Cc1cc(NC(=O)CSc2nc3ccccc3c(=O)n2Cc2ccccc2)no1 | inactive |
| Cn1c(=O)c(-c2cc(Br)ccc2N)nc2ccccc21 | inactive |
| O=C(CCCN1CCC(c2ccccc2)C1)c1ccc2c(c1)OCCO2 (stereo unspecified) | inactive |
| COc1ccccc1N=Nc1nc(-c2ccccc2)c(-c2ccccc2)[nH]1 | active: 22.4 µM |
| Cc1ccc(S(=O)(=O)NCC(=O)NCc2ccncc2)cc1 | inactive |
| Cc1ccc(C)n1NC(=O)c1ccccc1O | inconclusive [inhibitor, single point] |
| CCOc1ccc2[nH]c(SCC(=O)OC)c([N+](=O)[O-])c2c1 | inconclusive [inhibitor, single point] |
| CCOC(=O)C1(Cc2ccccc2C)CCCN(Cc2cc(OC)c(O)c(OC)c2)C1 (stereo unspecified) | inconclusive [inhibitor, partial curve] |
| O=C(N/N=C/c1ccc(OC(F)F)cc1OC(F)F)NC1CCCCC1 | inconclusive [inhibitor, partial curve] |
| CCOc1ccc(C2=Nn3c(nnc3-c3ccccc3OC)SC2)cc1 | inactive |
| Cc1nc2ccc(Cl)cc2c(-c2ccccc2Cl)c1CC(=O)O | inactive |
| O=C(Nc1ccc(F)cc1F)NC1CCN(Cc2c(F)cccc2Cl)CC1 | inconclusive [inhibitor, partial curve] |
| COc1ccc(C2=NN(S(C)(=O)=O)C(c3cccs3)C2)cc1OC (stereo unspecified) | inconclusive [inhibitor, partial curve] |
| C=CCOc1c(Br)cc(/C=C2/NC(=S)N(C(C)=O)C2=O)cc1OC | inconclusive [inhibitor, single point] |
| COC(=O)N1C2CC(=O)O[C@@H]3c4cc5c(cc4[C@]1(C)[C@@]3(Br)c1ccccc12)OCO5 | inconclusive [inhibitor, single point] |
| CC1CN(C(=O)c2cc3c(=O)n4ccccc4nc3s2)CC(C)O1 (stereo unspecified) | inconclusive [inhibitor, partial curve] |
| COc1ccc(NC(=O)c2cncc(Br)c2)cc1S(N)(=O)=O | inactive |
| CC(=O)Nc1c(-c2ccccc2)nc2ncccn12 | inconclusive [inhibitor, partial curve] |
| Cc1ccc(CNC(=O)CCc2nnc(Cc3ccc(-c4ccccc4)cc3)o2)o1 | inconclusive [inhibitor, single point] |
| CC[n+]1ccccc1/C=C/c1ccc(N(C)C)cc1 | inconclusive [inhibitor, single point] |
| N=C1CCCN1CC(=O)c1cccs1 | inactive |
